Data from US9970935B2, “Uses of GLI1 in detecting tissue fibrosis” (THE BRIGHAM AND WOMEN'S HOSPITAL, INC., priority 2014, dated 2018).

How the values were obtained:
[1] = system: interstitial myofibroblasts and tubular epithelial cells; conditions: mouse, in vivo
UUO kidneys = assay: Unilateral ureteral obstruction (UUO) kidney fibrosis model; conditions: mouse, in vivo

SMILES: C[As](C)SC[C@H](NC(=O)CC[C@H](N)C(=O)O)C(=O)NCC(=O)O [darinaparsin, S-dimethylarsino-glutathione]
- cell-cycle distribution of tubular-epithelial cells [1]: without altering
- endogenous Gli1 protein level in UUO kidneys (UUO kidneys): significant reduction
- endogenous Gli2 protein level in UUO kidneys (UUO kidneys): significant reduction
- number of Gli expressing interstitial cells after UUO (UUO kidneys): reduces
- phosphorylated retinoblastoma protein (p-Rb, Ser780) (UUO kidneys): reduced
- severity of fibrosis (UUO kidneys): significantly reduced
